The source of these data is article PMC4046113.

Chains of the proteins cited; added tags and fusions are not shown. Lines headed by an entry give the natural chain unless they say otherwise; changes in a name come on top. Residues count along the entry.
UniProt O95292: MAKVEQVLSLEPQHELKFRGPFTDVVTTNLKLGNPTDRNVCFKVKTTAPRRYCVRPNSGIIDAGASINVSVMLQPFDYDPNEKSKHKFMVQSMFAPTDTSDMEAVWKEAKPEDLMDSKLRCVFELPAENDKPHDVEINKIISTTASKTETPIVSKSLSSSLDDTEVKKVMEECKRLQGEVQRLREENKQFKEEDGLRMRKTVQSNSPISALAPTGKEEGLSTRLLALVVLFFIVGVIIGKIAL
GST-VAPB1-220 (the entire cytosolic domain): residues 1-220 of O95292
UniProt Q9QY76: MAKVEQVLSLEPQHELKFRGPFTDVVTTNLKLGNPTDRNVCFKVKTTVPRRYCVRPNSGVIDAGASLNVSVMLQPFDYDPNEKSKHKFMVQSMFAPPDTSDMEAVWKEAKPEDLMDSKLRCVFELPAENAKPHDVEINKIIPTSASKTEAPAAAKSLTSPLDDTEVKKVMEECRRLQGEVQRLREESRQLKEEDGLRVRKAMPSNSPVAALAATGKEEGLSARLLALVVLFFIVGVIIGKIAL

Experiment [1] addresses T1, HA-tagged PTPIP51 (UniProt Q96TC7).
T1 sequence: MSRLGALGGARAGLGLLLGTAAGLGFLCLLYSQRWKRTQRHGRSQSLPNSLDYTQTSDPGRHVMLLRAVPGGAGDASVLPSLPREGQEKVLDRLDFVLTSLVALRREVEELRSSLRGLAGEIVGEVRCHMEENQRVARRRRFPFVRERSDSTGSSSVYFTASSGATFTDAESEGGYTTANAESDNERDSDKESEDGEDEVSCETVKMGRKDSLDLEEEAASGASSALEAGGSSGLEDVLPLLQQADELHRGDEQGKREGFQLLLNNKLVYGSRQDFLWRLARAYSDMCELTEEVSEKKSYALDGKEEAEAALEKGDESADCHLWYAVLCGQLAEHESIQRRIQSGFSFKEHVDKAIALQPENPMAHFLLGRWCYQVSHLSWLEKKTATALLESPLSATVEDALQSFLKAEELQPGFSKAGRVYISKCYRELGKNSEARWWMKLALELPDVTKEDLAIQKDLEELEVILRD
Description: co-IP; HEK293 cells co-transfected with VAPB or PTPIP51 and EGFP-tagged wild-type or mutant TDP-43; VAPB and PTPIP51 immunoprecipitated via their myc or HA tags, samples probed for co-immunoprecipitating TDP-43.

The next experiment has as its target myc-tagged VAPB (UniProt O95292). The experiment is described as above.
Experiment [2] addresses T1, HA-tagged PTPIP51. Description: co-IP; HEK293 cells transfected with PTPIP51-HA, lysed in immunoprecipitation buffer (50 mM Tris-citrate pH 7.4, 150 mM NaCl, 1% Triton X-100, 5 mM EGTA, 5 mM EDTA); IP via the HA tag, endogenous VAPB detected by immunoblotting; co-transfected EGFP control or wild-type or mutant TDP-43. Background: Immunoblotting shows a protein as a band on a membrane.

Experiment [3] concerns the target T1, HA-tagged PTPIP51. Description: co-IP; NSC34 cells transfected with PTPIP51-HA, lysed in RIPA buffer; IP via the HA tag, endogenous VAPB detected by immunoblotting; with control or TDP-43 siRNAs, or co-transfected EGFP control or wild-type or mutant EGFP-TDP-43.
The target in experiment [4] is endogenous VAPB (mouse) (mouse (endogenous in NSC34 cells and spinal cord)) (UniProt Q9QY76). Briefly: co-IP; mouse spinal cords (non-transgenic and TDP-43 transgenic) homogenized and diluted into immunoprecipitation buffer; VAPB immunoprecipitated with rabbit anti-VAPB, bound PTPIP51 detected with rat PTPIP51 antibody.
Experiment [5] addresses GST-VAPB1-220 (the entire cytosolic domain) (UniProt O95292). Briefly: pull-down; in vitro; 50 ug purified recombinant PTPIP51(36-470) incubated 16 h at 4 °C with GST or GST-VAPB(1-220) on glutathione-sepharose beads in PBS with 1% Triton X-100; bound PTPIP51 detected by immunoblotting; both purified.

No constants are given. Whether binding was seen depends on the method and setting. For some assays here: In cells and extracts the contact can be indirect. Some entries that bind do so weakly or less than the wild type. For some assays here: Tags and fused reporters may be left off the sequences shown.

For the molecule “EGFP-TDP-43A382T (from UniProt Q13148 1-414)”, the binding entry with HA-tagged PTPIP51 [1] and with myc-tagged VAPB was “no binding” each time.

Take “EGFP-TDP-43G348C (from UniProt Q13148 1-414)”: the binding result with HA-tagged PTPIP51 [1] and with myc-tagged VAPB was “no binding” each time.

For “EGFP-TDP-43M337V (from UniProt Q13148 1-414)”, the binding result in the experiment with HA-tagged PTPIP51 [1] and with myc-tagged VAPB was “no binding” throughout. In the case of “EGFP-TDP-43Q331K (from UniProt Q13148 1-414)”, the binding result in the experiment with HA-tagged PTPIP51 [1] and with myc-tagged VAPB was “no binding” in each case. In the case of “EGFP-tagged wild-type TDP-43 (from UniProt Q13148 1-414)”, the binding entry in the experiment with HA-tagged PTPIP51 [1] and in the experiment with myc-tagged VAPB was “no binding” each time.

In the case of “endogenous VAPB (HEK293) (from UniProt O95292 1-243)”, the binding result in the experiment with HA-tagged PTPIP51 [2] is listed as “binds”. As for “endogenous VAPB (mouse) (from UniProt Q9QY76 1-243)”, in the experiment with HA-tagged PTPIP51 [3], the binding result is “binds”.

B1: endogenous PTPIP51 (mouse spinal cord) (protein, UniProt Q3UJU9 1-470)
chain: MSRLGALGGSRAGLGLLLGTAAGLGFLCVLYSQRWKRTQRHGRSHSLPNSLDYAQASERGRQVTQFRAIPGEAGDAAILPSLSQEGQEKVLDRLDFVLTSLMALRREVEELQRSLQGLAGEIVGEVRSHIEENQRVARRRRFPFARERSDSTGSSSVYFTASSGAALTDAESEGGYTTANAESDYERDSDKESGDAEDEVSCETVRMGRKDSLDLDVEAASSPAAAALEEDDSSGREDVQLVLLQADELHQGSKQDKREGFQLLLNNKLAYGSRQDFLWRLARAYSDMSDLTEEESGKKSYALNGKEEAEAALKKGDESAACHLWYAVLCGQLAEHEGISKRIQSGFSFKEHVDKAIELQPEDPRGHFLLGRWCYQVSHLNWLEKKTATALFESPLSATVQDALQSFLKAEELQPGFSKAGRVYISKCYRELGKNSEARKWMKLAQELPDVTNEDSAFQKDLEELEVILG
B1: in experiment [4], the binding result is “binds”.

B2: PTPIP51 cytoplasmic domain (amino acids 36-470) (domain or fragment, UniProt Q96TC7 36-470)
chain: KRTQRHGRSQSLPNSLDYTQTSDPGRHVMLLRAVPGGAGDASVLPSLPREGQEKVLDRLDFVLTSLVALRREVEELRSSLRGLAGEIVGEVRCHMEENQRVARRRRFPFVRERSDSTGSSSVYFTASSGATFTDAESEGGYTTANAESDNERDSDKESEDGEDEVSCETVKMGRKDSLDLEEEAASGASSALEAGGSSGLEDVLPLLQQADELHRGDEQGKREGFQLLLNNKLVYGSRQDFLWRLARAYSDMCELTEEVSEKKSYALDGKEEAEAALEKGDESADCHLWYAVLCGQLAEHESIQRRIQSGFSFKEHVDKAIALQPENPMAHFLLGRWCYQVSHLSWLEKKTATALLESPLSATVEDALQSFLKAEELQPGFSKAGRVYISKCYRELGKNSEARWWMKLALELPDVTKEDLAIQKDLEELEVILRD
Turning to B2, the binding result in experiment [5] is “binds”.
